Drawing on the RNAGym collection of RNA variant scans (doi:10.7554/elife.90254), this text covers self-cleavage for 21 variants.

To fix the notation:
B1: OR4K15 (parent)
chain: GUUAACGGUCAUAGGCCAUGGAAACUAGGAGCACCAUUUCGCUGCCAGUGAAGAAAUGAACAAAGAAAAUCUGGGCCAGGCAGGCAUCAAAAGAAAUAGUCUUGCGCUCAACCAGAAAGUCUGUAAUCAUUUUAAGGGUA

Read counts are not given, so values of variants with three or more changes are uncertain.

Variants of B1 are the subject of the data set. The data set is described as follows: self-cleavage, relative activity (ratio to wild type); higher = more cleavage; in vitro, sequencing; the parent is a self-cleaving ribozyme.
With GUUAACGGUCAUAGGCCUUGGGGACUAGGAGCACCAUUUCGCUGCCAGUGAAGAAAUGAACAAAGAAAAUCUGGGCCAGGCAGGCAUCAAAAGAAAUAGUCUUGCGCUCGACCAGAAAGUCUGUAAUCAUUUUAAGGGUA [A18U A22G A23G A110G], the self-cleavage is 0.

Consider GUUAACGGUCAUAGGCCGUGGAAACUAGGAGCACCAUUUCGCUGCCAGUGAAGAAAUGAACAAAGAAAAUCUGGGCCAGGCAGGCAUCAAAAGAAAUAGUCUUGCGCUCAACCAGAAAGUCUGUAAUCACUUCAGGGGUA [A18G U130C U133C A135G], for which the self-cleavage stood at 2.07.

Take GUUAACGGUCAUAGGCCGUGGAAACUAGGAGCACCAUUUCGCUGCCAGUGAAGAAAUGAACAAAGAAAAUCUGGGCCAGGCAGGCAUCAAAAGAAAUAGUCCUGCGCUCAGCCAGAAAGUCUGUAAUCAUUUUAAGGGUA [A18G U102C A111G]: the self-cleavage is 0.

On to GUUAACGGUCAUAGGCCUUGGAAACUAGGAGCACCAUUUCGCUGCCAGUGGAGAAAUGAACAAAGAAAAUCUGGGCCAGGCAGGCAUCAAAAGAAAUAGUCUUGCGCUCCACCAGAAAGUCUGUAGUCAUUUUAAGGGUA [A18U A51G A110C A126G], for which the self-cleavage was found to be 0.12.

On to GUUAACGGUCAUAGGCCUUGGAAACUAGGAGCACCAUUUCGCUGCCAGUGUAGAAAUGAACAAAGAAAACCUGGGCCAGGCAGGCAUCAAAAGAAAUAGUCUUGCGCUCAACCAGAAAGUCUGUAAUCAUUUUAAGGGUA [A18U A51U U70C], for which the self-cleavage was found to be 1.2.

For GUUAACGGUCAUAGGCCUUGGAGACUAGGAGCACCAUUUCGCUGCCAGUGAAGAAAUGAACAAAGAAAAUCUGGGCCAGGCAGGCAUCAAAAGAAAUAGCCUUGCGCUCAACCAGAAAGUCUGUAAUCAUUUUAAGGGUA [A18U A23G U100C], the self-cleavage was found to be 1.45.

GUUAACGGUCAUAGGCCGUGGAAACUAGGAGCACCAUUUCGCUGCCAGUGAAGAAAUGAACAAAGAAAAUCUGGGCCAGGCAGGCAUCAAAAGAAAUAGUCUUGCGCUCAACCAGAAAGUCUGUAAUCACUCUAAGGGUA [A18G U130C U132C]: the self-cleavage came out at 0.82.

On to GUUAACGGUCAUAGGCCUUGGGAACUAGGAGCACCAUUUCGCUGCCAGUGGAGAAAUGAACAAAGAAAAUCUGGGCCAGGCAGGCAUCAAAAGAAAUAGUCUUGCGCUCAACCAGAAAGUCUGUAAUCAUUUUAAGGGUA [A18U A22G A51G], for which the self-cleavage is 1.51.

Consider GUUAACGGUCAUAGGCCUUGGAAUCUAGGAGCACCAUUUCGCUGCCAGUGAAGAAAUGGACAAAGAAAAUCUGGGCCAGGCAGGCAUCAAAAGAAAUAGUCUUGCGCUCAACCAGAAAGUCUGUAAUCAUUUUAAGGGUA [A18U A24U A59G], for which the self-cleavage is 1.71.

Regarding GUUAACGGUCAUAGGCCGUGGAAACUAGGAGCACCAUUUCGCUGCCAGUGAAGAAAUGAACAAAGAAAAUCUGGGCCAGGCAGGCAUCAAAAGAAAUAGUCUCGCGCUCAACCAGAAAGUCUGUAAUCAUUCUAAGGGUA [A18G U103C U132C], the self-cleavage is 0.7.

As for GUUAACGGUCAUAGGCCUUGGAAACUAGGAGCACCAUUUCGCUGCCUGUGAAGAAAUGAACAAAGAAAAUCAGGGCCAGGCAGGCAUCAAAAGAACUAGUCUUGCGCUCAACCAGAAAGUCUGUAAUCAUUUUAAGGGUA [A18U A47U U72A A96C], the self-cleavage amounted to 0.12.

Regarding GUUAACGGUCAUAGGCCUUGGAAACUAGGAGCACCUUUUCGCUGCCAGUGAAGAAAUGAACAAAGAAAAUCUGGGCCGGGCGGGCAUCAAAAGAAAUAGUCUUGCGCUCAACCAGAAAGUCUGUAAUCAUUUUAAGGGUA [A18U A36U A78G A82G], the self-cleavage came to 0.1.

For GUUAACGGUCAUAGGCCGUGGAAACUAGGAGCACCAUUUCGCUGCCAGUGAAGAAAUGAACAAAGAAAAUCUGGGCCAGGCAGGCAUCAAAAGAAAUAGUCUUGCGCCCAACCAGAAUGUCUGUAAUCAUUUUAAGGGUA [A18G U108C A118U], the self-cleavage was 0.01.

In the case of GUUAACGGUCAUAGGCCUUGGAAACUAGGAGCGCCAUUUCGCUGCCAGUGAAGAAAUGAACAAAGAAAAUCUGGGCCAGGCGGGCAUCAAAAGAGAUAGUCUUGCGCUCAACCAGAAAGUCUGUAAUCAUUUUAAGGGUA [A18U A33G A82G A95G], the self-cleavage worked out at 0.53.

Consider GUUAACGGUCAUAGGCCUUGGAAACUAGGAGCACCAUUUCGCUGCCAGUGAGGAAAUGAACAAAGAAAAUCUGGGCCAGGCAGGCAUCAAAAGAAAUAGUCUUGCGCUCAACCAGGAAGUCUGUAAUCAUUUUAAGGGGA [A18U A52G A116G U139G], for which the self-cleavage came to 0.44.

For the variant GUUAACGGUCAUAGGCCUUGGAAACUAGGAGCACCAUUUCGCUGCCAGUGAGGAAAUGAACAAAGGAAAUCUGGGCCAGGCAGGCAUCAAAGGAAAUAGUCUUGCGCUCAACCAGAAAGUCUGUAAUCAUUUUAAGGGUA [A18U A52G A66G A92G], the self-cleavage came out at 1.03.

For GUUAACGGUCAUAGGCCUUGGAAACUAGGGGCACCAUUUCGCUGCCAGGGAAGAAAUGAACAAAGAAAAUCUGGGCCAGGCGGGCAUCAAAAGAAAUAGUCUUGCGCUCAACCAGAAAGUCUGUAAUCAUUUUAAGGGUA [A18U A30G U49G A82G], the self-cleavage turned out to be 0.48.

As for GUUAACGGUCAUAGGCCUUGGAAACUAGGAGCACCGUUUCGCUGCCAGUGAAGAAAUGAACAAAGAAAAUCUGGGCCAGGCAGGCAUCAAAAGAAAUAGUCUUGCGCUCAACCAGAAAGUCUGUAAUCGUUUUAAGGGUA [A18U A36G A129G], the self-cleavage came to 0.91.

For the variant GUUAACGGUCAUAGGCCUUGGAAACUAGGAGCACCAUUUCGCUGCCAGUGAAGGAAUGAACAAAGAAAAUCUGGGCCAGGCAGGCAUCAAAAGAAAUAGUCUUGCGCUCAACCGGAAAGUCUGUAAUCAUUUUAAGGGUA [A18U A54G A114G], the self-cleavage came out at 0.71.

Consider GUUAACGGUCAUAGGCCUUGGAAACUAGGAGCACCAUUUCGCUGCCAGUGGAGAAAUGAACAAAGAAAAUCUGGGCCAGGCAGGCAUCAGAAGAAAUAGUCUUGCGCUCAACCAGAAAGUCUGUAAUCAUUUUAAGGGUA [A18U A51G A90G], for which the self-cleavage amounted to 0.91.

As to GUUAACGGUCAUAGGCCUUGGAAACUAGGAGCACCAUUUCGCUGCCUGUGAAGAAAUGUACAAAGAAAAUCUGGGCCAGGCAGGCAUCGAAAGAAAUAGUCUUGCGCUCAACCAGAAAGUCUGUAAUCAUUUUAAGGGUA [A18U A47U A59U A89G], the self-cleavage was found to be 0.58.
